Values marked as one replicate rest on one cluster of the flow cell; about a third of the high ones do not repeat.

These results are taken from the supplement of paper PMC10126150.
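Further: ATP exposure 15 min at 22 °C before imaging.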

The data set concerns ATP. The experiment in a line: switch fluorescence ratio, 500 uM ATP over buffer (Cy3 cluster intensity, sum of 5 cycles each) (fold (ratio)); higher = stronger signal-on switching upon ATP binding; sequences stand for … in TCGTCGGCAGCGTCAGATGTGTATAAGAGACAGTTTTTTTTTTTTTTTTTTTTTTTTT…TC. The settings on record: aptamer strand: ATP DNA aptamer (quencher-CACCTGGGGGAGTATTGCGGAGGAAGG + anchor), 100 nM annealed; ATP concentration: 500 uM; one replicate. The method, boiled down:
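Between each of five buffer/ATP cycles, the flow-cell was stripped with NaOH and re-annealed. Each cycle imaged Cy3-labelled switching-strand clusters, annealed to 100 nM quencher-labelled ATP aptamer on a modified Illumina MiSeq flow-cell, first in selection buffer and then after 15 min with 500 uM ATP at 22 °C. The fluorescence ratio is summed target-cycle over summed buffer-cycle Cy3 intensity per cluster, averaged per switch-domain sequence, with clusters outside 100-1000 RFU excluded.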
As for GTAGGTGGGC, the switch fluorescence ratio was 0.947.
Under CAATCATCTG stands 0.993.
Under TACGTGCACA stands 1.09; under TTTGGTTCCA, 0.996; under CGAGGCAACC, 1.08.
As for AAAAGAAAGA, the figure is 0.999; as for AAGAAGTTAC, 0.987.
Regarding ATAACTTTTA, the switch fluorescence ratio is 0.991.
As for GGTTCAGGG, the figure is 0.977.
Turning to GTTAGGATGT, the switch fluorescence ratio was 1.
As for CGCACTGTCG, the figure is 0.963.
As for AATTACTCTC, the figure is 0.964; as for GTTACGTGTG, 0.99.
Under AGGGAAGAC stands 1.05; under CGCGTGGCTC, 1.06.
As to GATTGGCGG, the switch fluorescence ratio came to 0.961.
As for GTCACAAGA, the figure is 0.997; as for ACGTAGCGGG, 1.25; as for TGATCGTCGT, 0.978.
As for AATACCTTAC, the figure is 2.82; as for TGTTGAAGTA, 0.983.
As to GGGGCTTACC, the switch fluorescence ratio was determined as 0.971.
Under TTGAGTCGAT stands 1.01; under CTTTTCTGCG, 1.04; under GATCATAACT, 1.03.
As for GACATTAAAC, the figure is 1.07; as for AAATGGACCG, 1.01.
Under GGCCAAACAT stands 1.03; under ATGAAGACCG, 1.04; under CCTTTCCTTT, 1.03.
As for TCTGACTGCG, the switch fluorescence ratio worked out at 1.04.
As for AGGGCTGGGA, the figure is 1.03; as for AGTACGCCTT, 1.01.
Take AGTCGATCGT: the switch fluorescence ratio came to 1.01.
As for TAAATGTCAA, the figure is 1.03; as for GGTTTGGCTT, 1.02.
As for ACCCCTCTTA, the figure is 1.01; as for CCTAGGTTAT, 1.01; as for GATCCTTCGC, 2.98.
As for TGTACGAGTC, the figure is 0.918.
GGCTTGATGT: the switch fluorescence ratio worked out at 0.999.
As for AGAGCCG, the figure is 1.01; as for CGCAATTTGT, 2.22.
In the case of CAAATGTATA, the switch fluorescence ratio came out at 1.05.
Under GTAGTCGCCC stands 1.02.
For GGATTCCAAA, the switch fluorescence ratio worked out at 1.07.
Under GCTAGATTTT stands 1.01; under TACTGGGTAA, 1.02; under AATGCGCCCA, 1.02.
As for GGACTGGTGA, the figure is 1.04; as for CGAGTTTCCC, 0.988.
CGTGGCTAA: the switch fluorescence ratio came to 1.
Consider CTGCTCTTGA, for which the switch fluorescence ratio came to 1.02.
Under CTTGATTTCC stands 1.07; under ATGCTACTGA, 1.01; under AGGACCAAA, 1.02.
Regarding ATTGGCCTTT, the switch fluorescence ratio was 1.02.
Regarding GGTGAAGGAA, the switch fluorescence ratio worked out at 0.993.
As for AAAATGCTGC, the figure is 0.939; as for CTGTAAGTAA, 1.04; as for TAAGCTTCGC, 1.
As for ACACTCGAAA, the figure is 1.03; as for CGTGGATACA, 1.
As for CACGTGTTAG, the figure is 1.
For the sequence TTATCGCACG, the switch fluorescence ratio was determined as 1.39.
In the case of GTATTTACCT, the switch fluorescence ratio stood at 1.21.
Turning to GATCGCTGAG, the switch fluorescence ratio came out at 1.03.
Consider AGACCGGAGA, for which the switch fluorescence ratio came out at 1.02.
As for AGAGATAGTG, the figure is 0.96; as for ACAATCACAC, 1.1.
With AAACGAGGG, the switch fluorescence ratio is 0.981.
As for AAATAGTGTT, the figure is 1.05; as for CGGGAGCAGC, 1.16; as for TATTTCTATC, 1.01.
As for AAAGTATGCA, the figure is 0.991.
For the sequence AAATAACTCT, the switch fluorescence ratio amounted to 1.
Under AACAGATACC stands 1.06; under TCGTGACT, 1.04.
As for ACTTGGTGAC, the figure is 1.07.
Under CCCACTCCTC stands 1.17; under GCTAAGTCCA, 1.03; under TTCGTGCGCT, 0.983.
As to CTAAGGGGGC, the switch fluorescence ratio stood at 0.984.
Turning to AGTGGGGT, the switch fluorescence ratio amounted to 1.03.
In the case of AACTTTAAGC, the switch fluorescence ratio was 1.03.
Under AGACGTGTTC stands 1.01.
Consider GCTGGGTG, for which the switch fluorescence ratio amounted to 1.14.
Under TGCAGACGT stands 1.02; under ATAGCGACAC, 2.13; under AATAAATTCG, 0.994.
Take CGAGTTGTC: the switch fluorescence ratio worked out at 0.934.
As for GTCGAATCGC, the figure is 0.992; as for GAGTCATTCG, 0.962; as for CAACAGCGAG, 1.04.
Under GCTTGCCCGG stands 0.981.
With GTCGTCTGA, the switch fluorescence ratio is 0.987.
Under TAATACTCTG stands 1.07; under AATGGCCCTG, 1.01; under GCCGCGAACG, 1.23.
Turning to TAATGGGGG, the switch fluorescence ratio came to 0.992.
Turning to CAGCGCGTTT, the switch fluorescence ratio was found to be 1.04.
Under TCGCAGGTTA stands 1.66.
Under GCGGTCTTCA stands 1.01; under AATTGTTCAG, 1.03; under AACGCCGTTG, 1.02.
As for CACTCGGTCG, the figure is 1.05; as for CGATACGAGC, 1.06; as for AACGATGCTA, 1.06.
Turning to AAAAATGGCC, the switch fluorescence ratio was determined as 1.01.
On to GTGTCGTAGC, for which the switch fluorescence ratio was 1.02.
Take GAAGTCATCG: the switch fluorescence ratio stood at 1.06.
Under AATAACGTCC stands 1.06.
As for CTAAG, the figure is 0.989.
Turning to AGGCGCTGTC, the switch fluorescence ratio is 1.06.
Under TGATGTTGG stands 0.98.
As for TTGCTAACGC, the figure is 1.04.
Under ATTTAAGCAA stands 1.77; under GTATGAATTG, 0.953.
For the sequence CAGGCTCTAC, the switch fluorescence ratio came out at 1.1.
As for CCCATATACG, the figure is 1.76; as for GCGAGCTAAA, 1.04.
